# Data reported in the supplement of paper PMC11876631.
# Positions count from the first letter of the chain named. Numbers in names are those of the source. ± gives the standard deviation of the averaged measurements. Laboratory Escherichia coli strains with one amino-acid change in an essential protein, pooled on minimal glucose agar with carbenicillin or gentamicin at twice the control MIC (plus kanamycin and chloramphenicol for the plasmids), 48 h. Fold change of barcode share against drug-free plates; higher = less susceptible. Active = above 20 in both replicates (the paper's putatively resistant). '<' = one read or none on drug, '>' = one read or none on a drug-free plate. Shares are relative, so most strains fall below 1 when a few take over. Listed are strains with at least 15 reads on both drug-free plates, and hits; most hits rest on fewer reference reads. Replicate rank correlation about 0.5. Edits are read from barcodes.
# B1: ispA L18A (protein)
# chain: MDFPQQLEACVKQANQAASRFIAPLPFQNTPVVETMQYGALLGGKRLRPFLVYATGHMFGVSTNTLDAPAAAVECIHAYSLIHDDLPAMDDDDLRRGLPTCHVKFGEANAILAGDALQTLAFSILSDADMPEVSDRDRISMISELASASGIAGMCGGQALDLDAEGKHVPLDALERIHRHKTGALIRAAVRLGALSAGDKGRRALPVLDKYAESIGLAFQVQDDILDVVGDTATLGKRQGADQQLGKSTYPALLGLEQARKKARDLIDDARQSLKQLAEQSLDTSALEALADYIIQRNK
# B2: ispA L18Q (protein)
# chain: B1 chain with A18Q
# B3: ispA L18W (protein)
# chain: B1 chain with A18W
# B4: ispA L208W (protein)
# chain: B1 chain with A18L, L208W
# B5: ispA L208A (protein)
# chain: B1 chain with A18L, L208A
# B6: ispB M135W (protein)
# chain: MNLEKINELTAQDMAGVNAAILEQLNSDVQLINQLGYYIVSGGGKRIRPMIAVLAARAVGYEGNAHVTIAALIEFIHTATLLHDDVVDESDMRRGKATANAAFGNAASVLVGDFIYTRAFQMMTSLGSLKVLEVWSEAVNVIAEGEVLQLMNVNDPDITEENYMRVIYSKTARLFEAAAQCSGILAGCTPEEEKGLQDYGRYLGTAFQLIDDLLDYNADGEQLGKNVGDDLNEGKPTLPLLHAMHHGTPEQAQMIRTAIEQGNGRHLLEPVLEAMNACGSLEWTRQRAEEEADKAIAALQVLPDTPWREALIGLAHIAVQRDR
# B7: ispB I32Q (protein)
# chain: B6 chain with I32Q, W135M
# B8: ispB I32W (protein)
# chain: B6 chain with I32W, W135M
# B9: ispB I32P (protein)
# chain: B6 chain with I32P, W135M
# B10: ispB V271W (protein)
# chain: B6 chain with W135M, V271W
# B11: ispB V271A (protein)
# chain: B6 chain with W135M, V271A
# B12: ispB V271Q (protein)
# chain: B6 chain with W135M, V271Q
# B13: ispB L110A (protein)
# chain: B6 chain with L110A, W135M
# B14: ispB I32A (protein)
# chain: B6 chain with I32A, W135M
# Biological target: Escherichia coli (laboratory strain)
# Experiment: barcode share on antibiotic plates over drug-free plates; higher = less susceptible
# Method: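 A pool of E. coli strains, each edited to carry one amino-acid change in an essential protein, was grown for 48 h on minimal glucose agar with or without antibiotic; strain barcodes were sequenced; mean of two replicates.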
# [1] = antibiotic: carbenicillin, 2× MIC (3.1 µg/mL)
# [2] = antibiotic: gentamicin, 2× MIC (MIC 0.45 µg/mL)
Protein,fold change of barcode share [1],fold change of barcode share [2]
B1,0.472 ± 0.032,4.32 ± 5.7
B2,0.482 ± 0.11,2.83 ± 3.9
B3,0.338 ± 0.011,1.12 ± 1.3
B4,2.04 ± 1,
B5,0.31 ± 0.05,0.265 ± 0.29
B6,0.109 ± 0.0077,< 0.0167
B7,0.474 ± 0.047,< 0.00511
B8,0.535 ± 0.084,0.212 ± 0.15
B9,0.396 ± 0.064,0.0125 ± 0.011
B10,0.711 ± 0.16,208 [active]
B11,0.231 ± 0.0065,0.00437 ± 0.0033
B12,0.899 ± 0.25,18.4 ± 5.3
B13,0.418 ± 0.15,< 0.00905
B14,0.502 ± 0.18,0.00898 ± 0.0057
